Experimental data published in the supplement of paper PMC7826260.
The other results are listed elsewhere or left out. Cleavage of a single-stranded DNA pool by Rep nickase domains was read by sequencing for 1 h at 37 °C with 3 µM enzyme; only the middle of the 90-letter strands is printed. Values are log2 of uncut reads against the no-enzyme pool; strong cutting gives strongly negative numbers. There is no active / inactive call. Because reads are shares of a total, they shift together; values above 0 arise when much of the pool is cut.

test system: T1, Rep nickase domain of tomato golden mosaic virus; test: uncleaved DNA left, log2 of reads against the no-enzyme library (log2 ratio); higher = less cleavage (more negative = more Rep cleavage of the k-mer); sequences stand for … in CTCGTCCG…ACCGGAGA
T1 sequence (protein, residues 1-124, tag omitted): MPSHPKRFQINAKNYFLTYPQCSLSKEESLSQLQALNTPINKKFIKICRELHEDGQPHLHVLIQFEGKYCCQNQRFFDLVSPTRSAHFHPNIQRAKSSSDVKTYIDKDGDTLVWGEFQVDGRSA
Description: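 A pool of 90-nt single-stranded DNAs with seven random bases just before the constant AC of the nick site (name = the seven bases) was cut by 3 µM recombinant His6-SUMO-tagged Rep nickase domain (300 nM DNA, 50 mM HEPES pH 8.0, 50 mM NaCl, 1 mM MnCl2, 1 h, 37 °C, three replicates). Uncut DNA was amplified and sequenced.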

| Sequence | uncleaved DNA left (log2) |
| --- | --- |
| CTTAATA | 0.11 |
| TGTGCCC | -0.0126 |
| CATCGCT | -0.0232 |
| TTTCTGT | -0.104 |
| GACAGTT | -0.113 |
| AGTAACT | 0.161 |
| AGGGTAC | -0.0456 |
| GCACGGT | 0.0587 |
| TTGGGGC | -0.022 |
| GCATAGT | -0.0776 |
| CAGATCA | -0.0381 |
| ACGGAAA | 0.00208 |
| TTGTCCC | -0.0634 |
| ACTAAGT | 0.155 |
| TATGATG | -0.0493 |
| AAACACT | -0.145 |
| ATGGAAA | 0.131 |
| GCACCGG | 0.0655 |
| GAATGGT | -1.87 |
| TGAAGTC | -0.0514 |

| Sequence | uncleaved DNA left (log2) |
| --- | --- |
| GGCTCTG | 0.0565 |
| AGTTTGC | -0.106 |
| AGGCGAC | -0.0232 |
| CTACCTG | -0.169 |
| TCCGCGG | 0.0621 |
| CCTTGAA | -0.218 |
| ACGCCAA | -0.0953 |
| CGCCAGA | 0.0249 |
| GGGTAGC | 0.0828 |
| GGGTTTG | 0.112 |
| ATGCGTA | -0.0684 |
| TCGTGTG | -0.0597 |
| TTCTGCT | -0.111 |
| GCAGGCT | -0.124 |
| CGATGAG | -0.0566 |
| GGGGCCG | 0.0604 |
| TGCTGGT | 0.00951 |
| AGGATTC | -0.0427 |
| TGATTCA | 0.168 |
| CGTCTTG | -0.268 |
